Assay results reported in PubChem BioAssay AID1159614 (National Center for Advancing Translational Sciences (NCATS), 2016).
Screen size: about 45,000 compounds; about 65 (0.1%) were called active. The call rests on the fitted dose curve; in most records, active means well fitted activation curve with a large enough effect; inconclusive means small, poorly fitted or top-dose-only effect; inactive means no such curve, though single readings can be large or run the other way. Some of the results follow.

Target: Galactocerebrosidase (Homo sapiens) (UniProt P54803)
UniProt P54803, sequence (P54803 whole entry, looked up): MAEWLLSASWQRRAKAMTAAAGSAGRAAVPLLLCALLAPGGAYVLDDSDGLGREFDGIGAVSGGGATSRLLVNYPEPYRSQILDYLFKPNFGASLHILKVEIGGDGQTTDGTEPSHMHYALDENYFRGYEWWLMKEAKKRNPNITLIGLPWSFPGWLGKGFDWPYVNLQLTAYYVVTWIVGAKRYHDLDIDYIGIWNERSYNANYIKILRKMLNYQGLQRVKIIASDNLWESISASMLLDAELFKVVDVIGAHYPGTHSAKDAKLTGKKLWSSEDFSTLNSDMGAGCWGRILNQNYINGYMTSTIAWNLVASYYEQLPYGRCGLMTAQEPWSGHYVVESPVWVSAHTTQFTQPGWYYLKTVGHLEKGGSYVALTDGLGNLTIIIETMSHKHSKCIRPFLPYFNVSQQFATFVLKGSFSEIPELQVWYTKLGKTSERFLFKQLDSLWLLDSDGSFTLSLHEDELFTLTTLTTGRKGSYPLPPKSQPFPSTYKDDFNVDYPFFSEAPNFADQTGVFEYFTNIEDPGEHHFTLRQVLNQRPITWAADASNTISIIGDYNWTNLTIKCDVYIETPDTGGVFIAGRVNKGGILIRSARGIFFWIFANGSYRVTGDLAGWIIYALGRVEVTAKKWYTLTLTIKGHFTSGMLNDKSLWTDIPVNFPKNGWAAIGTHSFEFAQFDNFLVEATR
Test: A Novel Cell-Based Assay to Identify Small Molecules for B -Galactocerebrosidase; further: nearly all actives have a fitted effect of over 65% in size; on activation: 0% is about no effect
Details: 145M-Twi-hGALC-G270D cells (Twitcher mouse brain line with human GALC G270D), HMU-beta-Gal fluorescence, 48 h; series mostly up to 57.5 µM; activation: at the top concentration
Summary of the method: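 Brain-derived Twitcher mouse 145M-Twi cells stably expressing human GALC-G270D or wild-type GALC, treated live, then residual GALC activity read by fluorescence of HMU-b-Gal substrate (0.1 mM final) in citrate-phosphate buffer pH 5.2 with sodium taurocholate. Signal increase indicates enhancement.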
Potency means the concentration at half of the fitted maximal effect.

activation, inactive:
CC(C)Oc1ccc(C(=O)N(Cc2ccc(N(C)C)cc2)C2CCS(=O)(=O)C2)cc1 (stereo not drawn) -10.7%
CCCNC(=O)NS(=O)(=O)c1ccc(Cl)cc1 -10.8%
CCc1ccc(CNC(=O)Cn2nc(-c3ccc(C)cc3)ccc2=O)cc1 -8.44%
COc1ccccc1N1CCN(C(=O)CCS(=O)(=O)c2ccc3c(c2)oc(=O)n3C)CC1 -2.15%
Cc1ccc(N2CCN(C(=O)c3cc4cc5ccc(C)cc5nc4s3)CC2C)cc1 (stereo not drawn) -8.11%
Fc1ccc(-n2ncc3c(Nc4ccc5c(c4)OCCO5)ncnc32)cc1 -5.79%
Cc1ccc(Nc2sc(C(=O)c3ccccc3)c(N)c2S(=O)(=O)c2ccccc2)cc1Cl -18.5%
CCOC(=O)c1nc(Nc2ccc(C(=O)OC(C)C)cc2)c2ccccc2n1 -7.21%
COc1ccccc1NC(=O)c1oc2ccccc2c1NC(=O)Cc1ccccc1 -19.3%
COc1ccc(-c2noc(CSc3nnc(C)n3-c3cccc(C)c3)n2)cc1 -20.5%
COc1ccc(O)c(C2=Nc3ccccc3N=C(c3ccccc3)C2)c1 -3.11%
COc1cc(C(=O)NCCc2csc(-c3ccc(Cl)cc3)n2)cc(OC)c1OC -5.39%
O=C(CN1C(=O)CC(c2ccccc2)=Nc2ccccc21)Nc1ccc(Br)cc1 -14.8%
CNC(=O)c1ccc2c(c1)N(Cc1cc(C)ccc1C)C(=O)c1ccccc1S2 -16.2%
CCCN1CCN(C(=O)Cn2c(-c3cccs3)cc3cc(F)ccc32)CC1 2.25%
Cc1ccc2c(c1)N(C(=O)Nc1cccc3c1CCCC3)CCO2 -16.7%
O=C(NCCc1ccccc1)c1ccc(Nc2nc3ccccc3n3nnnc23)cc1 -3.43%
Cc1cccc(CCNC(=O)c2cc3c(s2)-c2c(C)cccc2OC3)c1 -7.59%
COc1ccc(CNC(=O)c2ccc(-c3nc(CSc4ccc(C)cc4)c(C)o3)cc2)c(OC)c1 -30%
COc1ccc(C2c3c(n(C)c4ccccc34)C(=O)N2CC(=O)Nc2cccc(Cl)c2)cc1 (stereo not drawn) -19.5%
CCOC(=O)c1c(NC(=O)CSc2cn(CCNC(=O)c3ccc(OC)cc3)c3ccccc23)sc2c1CCCC2 -25.4%
CCc1ccc(S(=O)(=O)c2cn(C)c3cc(N4CCCC4)c(F)cc3c2=O)cc1 -14.4%
COc1ccc(C(=O)Nc2ccc3c(c2)CCCN3S(=O)(=O)c2ccc(C)cc2)c(OC)c1 11.2%
CN(Cc1ccccc1)c1ccc(-c2nc(-c3ccncc3)no2)cc1[N+](=O)[O-] -31.8%
Cc1cc(C)cc(C(=O)NCC(c2ccc(N(C)C)cc2)N2CCCC2)c1 (stereo not drawn) -12.7%
O=C(NCCC1=CCCCC1)C1CCN(C(=O)N2CCOc3ccc(Cl)cc32)CC1 -10.6%
COc1cccc(NC(=O)C2CCCN(S(=O)(=O)c3cccc4nonc34)C2)c1 (stereo not drawn) -8.93%
Cc1cn2c(=O)c(S(=O)(=O)Nc3ccc(F)cc3F)c(C)nc2s1 -5.58%
CCOc1ccc(C(=O)NCCc2csc(-c3cccc(F)c3)n2)cc1OCC -9.48%
CCOC(=O)CC(NC(=O)CCc1c(C)nc2ncnn2c1C)c1ccc(C)cc1 (stereo not drawn) -14.4%
COC(=O)c1nnn(-c2ccc(Br)cc2)c1C(=O)OC -21.7%
O=C(NCc1ccco1)c1ccc2c(c1)N(Cc1ccc(Cl)cc1)C(=O)c1ccccc1S2(=O)=O -3.95%
O=C(NCc1ccc(Cl)cc1)c1ccc(Cn2c(=O)c3cccn3c3cccnc32)cc1 -0.432%
COCCCNC(=O)c1ccc2c(c1)N(Cc1ccccc1F)C(=O)c1ccccc1S2=O (stereo not drawn) 0.135%
CCOc1ccc(N2C(=O)c3[nH]nc(-c4ccc(OC)cc4)c3C2c2cccs2)cc1 (stereo not drawn) -8.77%
COc1ccc(-c2nnc(SCC(=O)Nc3ccc(C)c(C)c3)s2)cc1 -14.2%
Cc1ccc(C)c(Nc2nnc(-c3ccc(C)c(S(=O)(=O)NCC4CCCO4)c3)c3ccccc23)c1 (stereo not drawn) -22.8%
O=C(Cn1c(=O)n(Cc2nc(-c3ccccc3)no2)c(=O)c2ccccc21)Nc1cccc(Cl)c1 -19.4%
COc1ccc(S(=O)(=O)N2CCN(Cc3nc4ccc(C)cc4o3)CC2)cc1 -9.46%
O=C1CCc2cc(S(=O)(=O)NC(C(=O)Nc3cccc(F)c3)c3ccccc3)ccc2N1 (stereo not drawn) -12.2%
CCOc1ccc(NC(=O)CSc2oc(-c3ccccc3)nc2S(=O)(=O)c2ccc(Cl)cc2)cc1 -8.81%
COC(=O)c1cc(NC(=O)c2cc3sccc3n2Cc2ccc(Cl)cc2)cc(C(=O)OC)c1 -11.7%
CCOCc1cc(CN2CCN(c3ccccc3OC)CC2)c(O)c2ncccc12 -13.2%
CCc1ccccc1NC(=O)CCCN1C(=O)CCn2nc(-c3cn(C)c4ccccc34)cc21 -16.3%
COc1cc(Nc2nc(SCc3ccccc3Cl)nc3ccccc23)cc(OC)c1 2.73%
COc1cccc(NC(=O)c2oc3ccccc3c2NC(=O)C2CCCCC2)c1 -8.48%
COc1ccc(C(=O)/C=C/c2cn(CC(O)CN3CCc4ccccc43)c3ccccc23)cc1 (stereo not drawn) 21.1%
O=C1NC(NS(=O)(=O)c2ccccc2)(C(F)(F)F)C(=O)N1c1ccc(F)cc1 (stereo not drawn) -18.2%
Cc1cc(N2CCC(C(=O)N(CC(C)C)CC(C)C)CC2)n2nc(C)c(-c3ccc(Cl)cc3)c2n1 -14.6%
COc1cc(OC)cc(-c2nc3nc(C)c(CCC(=O)Nc4ccc(C)cc4C)c(C)n3n2)c1 -8.19%
CCN(CC)S(=O)(=O)c1ccc(C(=O)Nc2nc3ccc(Cl)cc3s2)cc1 -23.2%
O=C1CCc2cc(S(=O)(=O)NCc3ccccc3Cl)cc3c2N1CC3 -17.2%
O=S(=O)(c1ccccc1)c1nnn2c1nc(NCc1ccc(Cl)cc1)c1sccc12 -16%
O=C(c1cnn(-c2ccc(F)cc2)c1-n1cccc1)N1CCN(c2ccc(Cl)cc2)CC1 -36.9%
COc1ccccc1C1C=C(c2ccc(C(C)C)cc2)Nc2nnnn21 (stereo not drawn) -1.99%
CSc1ncc(Cl)c(C(=O)N(Cc2ccc(C)cc2)C2CCS(=O)(=O)C2)n1 (stereo not drawn) -6.04%
Cc1cc(C)cc(OCc2cc(=O)n3c(-c4ccccc4)csc3n2)c1 -2.09%
Cc1cccc(CNC(=O)c2ccc3c(c2)c(C)c(C)n3Cc2ccccc2)c1 -15.6%
Fc1ccc(-n2ncc3c(Nc4cccc(Cl)c4)ncnc32)cc1 -15.5%
COc1ccccc1NC(=O)Cn1c(=O)c(CNc2ccccc2)cc2cc(OC)c(OC)cc21 -27%
CCn1nc(C)c2c(-c3ccccc3)cc(=O)n(C(C)C(=O)NCc3ccccc3OC)c21 (stereo not drawn) -17.2%
Cc1ccc(S(=O)(=O)c2nnn3c2nc(NCc2cccs2)c2sccc23)cc1 -13.1%
CCOC(=O)N1CCN(Cc2nc3cc(NC(=O)c4cccc(C)c4)ccc3n2C(C)C)CC1 -8.05%
COc1cccc(NC(=O)Cn2cc(S(=O)(=O)Cc3ccccc3F)c3ccccc32)c1 -7.93%
O=C(CCn1ccc2cc(S(=O)(=O)N3CCCC3)ccc21)NCc1ccccc1F 9.99%
Nc1c(C(=O)Nc2cccc(F)c2)c2ccccn2c1C(=O)c1ccccc1 -6.23%
COc1ccc(CCNc2nc(SCc3ccc(Cl)cc3)nc3ccccc23)cc1OC -1.73%
CCCCCOc1ccccc1/C(=C\SC)n1ccnc1 -45.4%
Cc1cccc(C(=O)Nc2ccc3nc(SCCOc4ccccc4)sc3c2)c1 -9.35%
CN(C)c1ccc(N=NS(=O)(=O)O)cc1 -3.11% [at 114 µM]
COc1ccc(C2C=C(c3ccccc3)Nc3nc(NC(=O)/C=C/c4ccccc4Cl)nn32)cc1 (stereo not drawn) -12.5%
CCc1cnc2c(c1SCC(=O)NCc1ccc(F)cc1)c(=O)n(C)c(=O)n2C -16.5%
Nc1ncc(S(=O)(=O)Nc2ccc(F)cc2F)cn1 -6.27%
Cc1cc(C)c2c(c1)c(C)cc1nnc(SCC(=O)c3ccc(F)cc3)n12 -10.9%
COC(=O)c1ccccc1NC(=O)Cn1c(=O)cc(C)c2c(C)nn(C)c21 -4.91%
CCCCC(=O)N1CCc2cc(OC)c(OC)cc2C1COc1ccc(OC)cc1 (stereo not drawn) -16.4%
COc1ccc(NC(=O)CN2C(=O)COc3ccc(S(=O)(=O)N4CCCCC4)cc32)cc1OC 7.2%
Cc1ccc(C)c(Cn2c(C(=O)O)c(CNCc3cccs3)c3ccccc32)c1 -5.18%
COc1ccc(Cl)cc1NC(=O)Cn1c(=O)c(-c2ccccc2NC(C)=O)nc2ccccc21 -10.7%
CCOC(=O)c1c(NC(=O)COc2cccc(C)c2C)sc(C(C)=O)c1C -19.3%
COc1ccc(N2CCN(C(c3ccccc3F)c3sc4nc(-c5ccco5)nn4c3O)CC2)cc1 (stereo not drawn) -5.08%
CCOc1ccc(C(c2c(O)cc(C)n(Cc3ccco3)c2=O)N2CCCCC2)cc1 (stereo not drawn) -20.5%
Cc1ccc2cccc(NC(=O)C(C)Oc3ccc(Cl)cc3Cl)c2n1 (stereo not drawn) -13.3%
Cc1ccc(NC(=O)CC2Sc3ccc(C(F)(F)F)cc3NC2=O)cc1 (stereo not drawn) -20.9%
COc1cccc(CNS(=O)(=O)c2ccc3c(c2)C(C(C)C)C(=O)N3)c1 (stereo not drawn) -11.5%
COc1ccccc1C(=O)Nc1c(C(=O)Nc2ccccc2F)oc2ccccc12 3.63%
Cc1cc(-c2ccccc2)n2nc(-c3ccccc3)cc2n1 9.62%
CN(C)CCNC(=O)C(=O)NCC(c1ccc2c(c1)OCO2)N1CCOCC1 (stereo not drawn) -16.8%
Cc1c(C(=O)O)oc2c1-c1nn(Cc3ccc(Cl)cc3)cc1CC2 -20.7%
Cc1ccc(OCCSc2nc(C)c(Cc3ccccc3)c(=O)[nH]2)cc1 0.697%
Cc1ncc(CO)c(C=O)c1O -10.4%
CCN1C(=O)c2ccccc2C1Nc1ccc(OCCN2CCCCC2)cc1 (stereo not drawn) -4.75%
Cc1ccn2c(Nc3ccc(C(C)C)cc3)c(-c3cccnc3)nc2c1 -8%
Cc1cc(C)c(NC(=O)CSc2nncn3c2cc2oc(C)cc23)c(C)c1 -15.3%
Cc1cc(Cl)ccc1OCC(=O)N1CCC(c2nc3ccccc3s2)CC1 -20.6%
CC(=O)c1ccc(NC(=O)CN(C)S(=O)(=O)c2cnc[nH]2)cc1 -14.2%
COc1ccc(CNC(=O)Nc2cn(CC(C)C)c(=O)c3ccccc23)cc1 -13%

Potency, active:
COc1ccc(-c2c(C)c3ccc(O)c(CN4CCCC(C)C4)c3oc2=O)cc1OC (stereo not drawn) 20 µM
